In the supplement of paper PMC10126150:
Values marked as one replicate rest on one cluster of the flow cell; about a third of the high ones do not repeat.

Test system: ATP
Test: switch fluorescence ratio, 500 uM ATP over buffer (Cy3 cluster intensity, sum of 5 cycles each) (fold (ratio)); higher = stronger signal-on switching upon ATP binding; sequences stand for … in TCGTCGGCAGCGTCAGATGTGTATAAGAGACAGTTTTTTTTTTTTTTTTTTTTTTTTT…TC
Conditions: aptamer strand: ATP DNA aptamer (quencher-CACCTGGGGGAGTATTGCGGAGGAAGG + anchor), 100 nM annealed; ATP concentration: 500 uM; one replicate
Outline: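 Clusters with intensities outside 100-1000 RFU were excluded. The remaining Cy3-labelled switching-strand clusters on a modified Illumina MiSeq flow-cell had been annealed to 100 nM quencher-labelled ATP aptamer and imaged in selection buffer, then after 15 min with 500 uM ATP at 22 °C, for five cycles separated by NaOH stripping and re-annealing. The fluorescence ratio, averaged per switch-domain sequence, is each cluster's summed target-cycle Cy3 intensity over its summed buffer-cycle Cy3 intensity.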
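Note: ATP exposure 15 min at 22 °C before imaging.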

Sequence | switch fluorescence ratio
ATTGAGTCAA | 0.981
ATTGATAACT | 0.998
ATTGATCGG | 0.987
ATTGATGTAA | 0.97
ATTGATTCGC | 1.01
ATTGCACAAC | 1.1
ATTGCAGGAG | 0.99
ATTGCCTCGT | 0.966
ATTGCGCTCA | 0.97
ATTGCGTGGG | 1.07
ATTGCGTGTT | 0.982
ATTGCGTTAG | 0.97
ATTGGACGTG | 0.952
ATTGGAGCAC | 1.13
ATTGGCCTTA | 1.03
ATTGGCGATC | 0.99
ATTGGCGCAC | 1.09
ATTGGGTACT | 0.95
ATTGGTACAT | 0.986
ATTGGTAGTC | 0.996
ATTGGTGGT | 1.06
ATTGGTGTA | 1.03
ATTGGTTAGC | 0.976
ATTGGTTCTT | 0.965
ATTGTACAAC | 1.03
ATTGTACTAT | 0.978

Sequence | switch fluorescence ratio
ATTGTAGTAA | 1.03
ATTGTCGTAA | 1.02
ATTGTCTTCC | 1.7
ATTGTCTTTT | 1.01
ATTGTGAAAC | 1.02
ATTGTGAACC | 1.04
ATTGTGGGAT | 0.964
ATTGTGTGAG | 0.972
ATTGTTAGCG | 0.932
ATTGTTCACC | 0.975
ATTGTTGACC | 0.997
ATTGTTGCT | 0.98
ATTTAAATAA | 0.955
ATTTAATGAG | 0.976
ATTTACCTAG | 1.01
ATTTACGCTT | 1.04
ATTTACTCGG | 1.06
ATTTACTGGG | 1
ATTTACTGTG | 1.02
ATTTACTTTG | 1.03
ATTTAGAAGA | 0.996
ATTTAGAGGC | 1.02
ATTTAGCCAT | 1.01
ATTTAGGGTC | 1.07
ATTTAGTAAC | 1.11
ATTTATCCAT | 1.03

Sequence | switch fluorescence ratio
ATTTATGTT | 0.97
ATTTATTGAC | 1.03
ATTTATTTGG | 1
ATTTCACACC | 1.07
ATTTCATCCT | 0.956
ATTTCCGCTT | 1.79
ATTTCGACAG | 0.989
ATTTCGAGC | 1.03
ATTTCGATA | 0.934
ATTTCGGGTC | 0.993
ATTTCTGGTG | 1.12
ATTTGAAAGG | 0.983
ATTTGACACT | 1.2
ATTTGACCTT | 1.22
ATTTGCACCT | 1.19
ATTTGCCAGT | 0.968
ATTTGGACAA | 1.02
ATTTGGAGTG | 1.01
ATTTGGCGGC | 1.02
ATTTGGGCG | 1.08
ATTTGGGTG | 1.09
ATTTGTATAT | 1.04
ATTTGTCGGT | 1.05
ATTTGTGCAC | 1.02
ATTTGTTCAG | 0.985
ATTTGTTCGG | 0.989

Sequence | switch fluorescence ratio
ATTTGTTGGG | 1.01
ATTTTAAAAA | 0.99
ATTTTAAGCT | 0.995
ATTTTACGTC | 1.07
ATTTTCGCT | 0.999
ATTTTGAAAT | 1.01
ATTTTGCACT | 1.03
ATTTTGGCCG | 0.913
ATTTTTAAAG | 0.975
ATTTTTAGTA | 0.957
ATTTTTATTA | 0.987
ATTTTTCAC | 1.07
ATTTTTCAGT | 0.987
ATTTTTGATA | 1.01
ATTTTTGGAC | 1.04
CAAAACTCTC | 1.8
CAAAAGTACC | 1.19
CAAAATGCCG | 0.981
CAAAATGGTT | 0.983
CAAAATTATC | 1.01
CAAACAAGGC | 1.01
CAAACCTGC | 1.53
CAAACGGGCC | 1.38
CAAAGACCTA | 1.02
CAAAGAGGTG | 1.09
CAAAGCACGG | 1.14

Sequence | switch fluorescence ratio
CAAAGCTAAG | 1.01
CAAAGGGGGC | 1.03
CAAAGGGTAC | 1.07
CAAAGGGTGG | 0.994
CAAAGGTAA | 1.01
CAAAGTTTAC | 1.56
CAAATAAGAA | 1.03
CAAATGTCTA | 0.982
CAAATGTGTA | 0.995
CAAATGTTTT | 0.995
CAAATTAATG | 0.981
CAAATTACGG | 1.04
CAAATTAGTT | 0.998
CAAATTATTC | 0.965
CAAATTCAAA | 1.03
CAAATTGAAA | 1.02
CAACAAACGA | 1.2
CAACAAAGCG | 0.945
CAACACAGCG | 1.04
CAACACTTTC | 1.04
CAACAGCGAC | 1.56
CAACATAACT | 1.08
CAACATAGCT | 1.06
CAACATGAAC | 1.06
CAACATGCAT | 1.23
CAACCGAATT | 1.72

Sequence | switch fluorescence ratio
CAACCGATGT | 1.03
CAACCGGATT | 1.15
CAACCTGGAA | 1.06
CAACGAATTA | 1.05
CAACGACAGA | 1.04
CAACGCAGAT | 2.39
CAACGGCAGG | 1.04
CAACGGGGA | 0.966
CAACGTAAAG | 1.05
CAACGTCACG | 1.3
CAACGTTATG | 1.04
CAACTAGCCT | 1.1
CAACTCTTAG | 0.969
CAACTGAGG | 1.07
CAACTGCCGG | 1.05
CAACTGGGAA | 1.02
CAAGAGGCAA | 1.13
CAAGATACGT | 1.1
CAAGATATGT | 0.978
CAAGATTTAA | 0.995
CAAGCAACGT | 0.975
CAAGCAGACG | 1.08
CAAGCCAACC | 1.07
CAAGCCCTAT | 1
CAAGCGCAGG | 1.06
CAAGCTTAGA | 0.954

Sequence | switch fluorescence ratio
CAAGCTTAGC | 1.02
CAAGGAATCT | 1.02
CAAGGATTAT | 1
CAAGGATTTG | 0.997
CAAGGGG | 1.02
CAAGGGGCCG | 1.04
CAAGGTCAGT | 0.957
CAAGGTGCGC | 0.989
CAAGTAAGGG | 1
CAAGTGCACG | 1.06
CAAGTGGGCA | 0.966
CAAGTTAGAC | 1.06
CAAGTTTGGC | 1.04
CAATAGCAAA | 1.28
CAATAGGATA | 1.05
CAATAGGCGG | 0.997
CAATATAAGG | 0.995
CAATCAAGGT | 0.971
CAATCAGAAG | 1
CAATCAGGTG | 4.46
CAATCCGATA | 1.05
CAATCGGGGG | 1.03
CAATCTCC | 1.31
CAATCTGATC | 1.03
CAATCTGTTC | 1
CAATGAACTC | 1.01

Sequence | switch fluorescence ratio
CAATGAAGTA | 0.966
CAATGCTTTG | 0.989
CAATGTAGA | 0.971
CAATGTGTGG | 1.01
CAATGTGTTC | 1.03
CAATTAAGGC | 0.973
CAATTCAAGC | 1.4
CAATTCAGTA | 0.992
CAATTCGCTT | 1.02
CAATTCGGGA | 0.99
CAATTCGGTG | 1
CAATTGTCAA | 1
CAATTTTAGC | 1.01
CAATTTTTCC | 1.08
CACAACTCCT | 1.08
CACAAGGCAA | 0.98
CACAAGGTGC | 1.58
CACACAAGCG | 1
CACACAATAT | 1.35
